# Where “and” joins values, the source holds several entries; their conditions need not be identical. Equal values may be shown once. The full ranking holds about 5,300 compounds; the median of “PER2::LUC luminescence relative to vehicle control” is about 0.96, and the highest 2% start at about 1.3. The list shows a part of the results.
# Tested on: mPer2Luc MEF
# Experiment: PER2::LUC luminescence relative to vehicle control (fold of vehicle); higher = higher PER2::LUC reporter signal
# Details: 10 µM
# Procedure, shortened: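 The reported values are PER2::LUC luminescence as fold of vehicle control in mouse embryonic fibroblasts carrying the mPer2Luc reporter. Cells were seeded at ~3000 per well in 384-well plates in DMEM with 10% FBS at 37 °C and 5% CO2, and compounds were added at 10 μM 48 h later. ONE-Glo luminescence was read 24 h and 30 h after treatment.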
SMILES,PER2::LUC luminescence (time after treatment 24 h),PER2::LUC luminescence (time after treatment 30 h)
CCc1cncnc1N1CCN(Cc2nc3ccc(C(F)(F)F)cc3[nH]2)CC1,0.924,0.604
O=C(O)c1cc2cc(Cl)ccc2[nH]1,0.975,0.87
CCn1nnc2c(N3CCOCC3)nc(-c3ccc(NC(=O)Nc4ccc(C(=O)N5CCN(C)CC5)cc4)cc3)nc21,0.33,0.441
NS(=O)(=O)c1cc(C(=O)O)c(NCc2ccco2)cc1Cl,0.776,0.876
NC(=S)c1ccc[n+]([C@@H]2O[C@@H](COP(=O)([O-])OP(=O)(O)OC[C@H]3O[C@@H](n4cnc5c(N)ncnc54)C(OP(=O)(O)O)[C@H]3O)C(O)C2O)c1 (some centres undefined),1.25,0.811
COc1ccc2ccc(=O)oc2c1,1,1.01
COc1ccc2oc(-c3ccccc3)c(OC)c(=O)c2c1,1.54,1.73
O=C(O)c1cc(=O)c2ccccc2o1,0.998 and 1.05,0.946 and 1.14
CCC(CC)C(c1ccc(Nc2nc3ccccc3s2)cc1)n1cncn1 (centres undefined),1.1,1.23
CCOc1cc([C@@H](CS(C)(=O)=O)N2C(=O)c3cccc(NC(C)=O)c3C2=O)ccc1OC,0.907 and 0.859,0.969 and 0.905
CCn1c(=O)c(-c2cc(NC(=O)Nc3ccccc3)c(F)cc2Br)cc2cnc(NC)cc21,0.765,0.66
CC(C)(C)NCC(O)COc1cccc2[nH]c(=O)[nH]c12 (centres undefined),0.958,0.913
C#CCC(Cc1cnc2nc(N)nc(N)c2n1)c1ccc(C(=O)N[C@@H](CCC(=O)O)C(=O)O)cc1 (some centres undefined),0.899,0.678
O=C(C[S+]([O-])Cc1ccco1)NC/C=C\COc1cc(CN2CCCCC2)ccn1 (centres undefined),1.01,1
CNC(=O)[C@H]1O[C@@H](n2cnc3c(NCc4cccc(I)c4)nc(Cl)nc32)[C@H](O)[C@@H]1O,0.498,1.15
OCc1ccccc1O,0.985 and 0.906,0.877 and 0.839
O=C(c1ccccc1)c1ccc2n1CCC2C(=O)O (centres undefined),1.01 and 0.944 and 0.906,1.12 and 1.05 and 0.795
N[C@@H](C(=O)O)[C@@H](O)[C@H](O)[C@H](O)CO,0.937,0.882
COc1c(N2CCNC(C)C2)c(F)cc2c(=O)c(C(=O)O)cn(C3CC3)c12 (centres undefined),0.816,0.756
CC1(C)CC2C1CCC1(C)OC2(C)CCC1O (centres undefined),0.92,0.899
NS(=O)(=O)c1cccc2c1c([N+](=O)[O-])cc1[nH]c(=O)c(=O)[nH]c12,0.973,0.899
Cc1ccccc1C(C(=O)NC1CCCCC1)N(C(=O)Cn1cnc2ccccc21)c1cccc(F)c1 (centres undefined),0.892,0.875

SMILES,PER2::LUC luminescence (time after treatment 24 h),PER2::LUC luminescence (time after treatment 30 h)
O=C(Nc1ccccc1Br)N[C@@H]1CCN(c2ccc(C(F)(F)F)cn2)C1,1.14,1.17
NC(=O)[C@@H]1CCCN1C(=O)[C@H](Cc1c[nH]cn1)NC(=O)[C@@H]1CCC(=O)N1,0.616,1
O=C(NOCC(O)CO)c1cc(Br)c(F)c(F)c1Nc1ccc(I)cc1F (centres undefined),0.749,0.684
C/C1=C\CC(C)(C)/C=C/C(=O)/C(C)=C/CC1,1.08,1.06
CN(C)CC(c1ccc(O)cc1)C1(O)CCCCC1 (centres undefined),1.05 and 1.17,1.06 and 1.04
COC1=C(OC)C(=O)C(C/C=C(\C)CC/C=C(\C)CC/C=C(\C)CC/C=C(/C)CC/C=C(\C)CC/C=C(\C)CC/C=C(\C)CC/C=C(\C)CC/C=C(\C)CCC=C(C)C)=C(C)C1=O,0.941,0.909
C=C(C)[C@@H]1CC=C(CO)CC1,0.845,0.856
c1ccc(CNc2ncnc3nc[nH]c23)cc1,0.886,1.24
COc1cccc(C(=O)NCCN2CCN(c3ccc(Cl)cc3)CC2)c1,0.833,0.96
CC(=O)Oc1cccc(C)c1,1 and 0.978,0.971 and 0.973
O=C(Nc1ccccc1)Nc1ccc(-c2ccc(C(=O)[C@@H]3CCC[C@H]3C(=O)O)cc2)cc1,1.18,1.16
FC(F)(F)COCC(F)(F)F,0.965,0.954
CN1Cc2c(N)cccc2C(c2ccccc2)C1 (centres undefined),0.908,0.859
CN(C)C/C=C/C(=O)Nc1cc2c(Nc3ccc(F)c(Cl)c3)ncnc2cc1O[C@H]1CCOC1,0.143 and 0.099 and 0.084,0.115 and 0.096 and 0.072
O=C1NC(=O)C(c2ccccc2)(c2ccccc2)N1,0.908,0.86
CC(C)(O)c1ccccc1CC[C@@H](SCC1(CC(=O)O)CC1)c1cccc(/C=C/c2ccc3ccc(Cl)cc3n2)c1,1.05 and 1.02,0.978 and 1.25
O=C1NC(=O)C(=Cc2ccc(-c3ccc(F)cc3)o2)S1 (stereo in doubt),1.16,1.17
CCN[C@@H]1C[C@H](N)[C@@H](O[C@H]2OC(CN)=CC[C@H]2N)[C@H](O)[C@H]1O[C@H]1OC[C@](C)(O)[C@H](NC)[C@H]1O,1.14,0.805
COc1ccc2c(=O)c(CC(=O)O)coc2c1,0.908,0.978
C[C@@H]1O[C@@H](O[C@@H]2[C@@H](O)[C@H](O)[C@@H](CO)O[C@H]2c2c(O)cc(O)c3c(=O)cc(-c4ccc(O)cc4)oc23)[C@H](O)[C@H](O)[C@H]1O,1.04,0.979
CNc1ccccc1C(=O)N1CCc2c([nH]c3ccccc23)C1=O,1.56,1.79
Cc1cc(N)c2ccccc2[n+]1CCCCCCCCCC[n+]1c(C)cc(N)c2ccccc21,0.684 and 0.678,0.593 and 0.545

SMILES,PER2::LUC luminescence (time after treatment 24 h),PER2::LUC luminescence (time after treatment 30 h)
Nc1ccn([C@@H]2CS[C@H](CO)O2)c(=O)n1,1.14,0.884
Nc1c2c(nc3ccccc13)CCCC2O (centres undefined),0.853,0.991
O=C1NCCCc2c1oc1ccc(O)cc21,0.85,0.922
COc1ccccc1OCC(O)COC(N)=O (centres undefined),1.07,0.939
Oc1cc2c(cc1O)C(c1ccccc1)CNCC2 (racemic),0.807,0.855
NC1CCN(c2nc3c(cc2F)c(=O)c(C(=O)O)cn3-c2ccc(F)cc2F)C1 (centres undefined),1.12,1.06
C=CCCCCCCCCC(=O)[O-].C=CCCCCCCCCC(=O)[O-].[Zn+2],1.24,0.994
CCNC(=O)/C=C/c1cccc(Br)c1,1.01,1.16
C[C@@H]1C(=O)NC2=Nc3cccc(Cl)c3CN21,0.982,0.951
O=c1cc(-c2ccccc2)oc2cccc(O)c12,1.25,1.42
COC(=O)Nc1nc2cc([S+]([O-])c3ccccc3)ccc2[nH]1 (centres undefined),0.713,1.07
CCC(=O)Nc1cccc(Oc2nc(Nc3ccc(N4CCN(C)CC4)cc3OC)ncc2Cl)c1,0.432,0.449
N#Cc1c(NC(=O)c2cccc3ccccc23)sc2c1CCCC2,0.4,0.466
CCCOc1ccc(S(=O)(=O)N2CCN(CCO)CC2)cc1-c1nc2c(CCC)cn(CC)c2c(=O)[nH]1,0.679,0.717
C=CC(=O)Nc1cccc(Nc2nc(Nc3ccc(OCCOC)cc3)ncc2F)c1,0.619 and 0.585,0.661 and 0.564
O=C(O)CP(=O)(O)O,0.9,0.964
Cn1ccc2cc3c(cc21)CCN3C(=O)Nc1cccnc1,0.855,0.965
N#CC(C#N)=C(N)/C(C#N)=C/c1cc(O)c(O)c(O)c1,0.816,0.979
CC(C)C(C)C(O)C(O)C(C)C1CCC2C3COC(=O)C4CC(O)C(O)CC4(C)C3CCC12C (centres undefined),0.891,0.88
CCN(CC)CCCCCCCCOC(=O)c1cc(OC)c(OC)c(OC)c1,0.846,0.848
CO/N=C(\C(=O)N[C@@H]1C(=O)N2C(C(=O)OC(C)OC(C)=O)=C(COC(N)=O)CS[C@H]12)c1ccco1 (some centres undefined),1.02 and 1.01,1.09
C=CCOC(Cn1ccnc1)c1ccc(Cl)cc1Cl (centres undefined),1.29 and 0.968,1.31 and 0.96

SMILES,PER2::LUC luminescence (time after treatment 24 h),PER2::LUC luminescence (time after treatment 30 h)
O=C(/C=C/c1ccc(O)c(O)c1)O[C@@H]1C[C@](O)(C(=O)O)C[C@@H](O)[C@H]1O,1.8,1.28
C[C@@H]1O[C@@H](OC[C@H]2O[C@@H](Oc3cc(O)c4c(=O)cc(-c5ccc(O)cc5)oc4c3)[C@H](O)[C@@H](O)[C@@H]2O)[C@H](O)[C@H](O)[C@H]1O,0.948,0.927
C[C@@H]1COC(Nc2ccc3ncnc(Nc4ccc(OCc5nccs5)c(Cl)c4)c3c2)=N1,1.01,0.887
CC(=O)OCC(=O)[C@H]1CC[C@H]2[C@@H]3CCC4=CC(=O)CC[C@]4(C)[C@H]3CC[C@]12C,0.632,0.962
Cc1cc(SCc2sc(-c3ccc(C(F)(F)F)cc3)nc2C)ccc1OCC(=O)O,0.941,1.01
C#CCn1c(=O)c2c(ncn2C)n(C)c1=O,0.933,0.858
COc1cc(O)ccc1C(C)=O,0.96,0.926
Fc1ccc(-c2c3cccc(C(F)(F)F)c3nn2Cc2ccc(F)cc2Cl)cc1,0.962,0.911
CCOc1cc2c(c(F)c1OCC)C(=N)N(CC(=O)c1cc(N3CCOCC3)c(OC)c(C(C)(C)C)c1)C2,0.14,0.117
Cn1cc(-c2ccc3c(c2)CCN3C(=O)Cc2cccc(C(F)(F)F)c2)c2c(N)ncnc21,0.634,0.566
Oc1cccc(-c2nc(N3CCOCC3)c3oc4ncccc4c3n2)c1,0.876,0.791
CC(CN(C)C)CN1c2ccccc2Sc2ccccc21 (centres undefined),0.81,0.814
CC1(C)[C@@H](OC(=O)CCC(=O)O)CC[C@]2(C)[C@H]3C(=O)C=C4[C@@H]5C[C@@](C)(C(=O)O)CC[C@]5(C)CC[C@@]4(C)[C@]3(C)CC[C@@H]12,0.965 and 0.646,0.891 and 1.01
N=C(N)NCCN1CCCCCCC1,1.05,1.11
CC(C)CCCC(C)NC(C)C (centres undefined),0.984,0.97
C#C[C@]1(O)CC[C@H]2[C@@H]3CCC4=CC(=O)CC[C@@H]4[C@H]3CC[C@@]21CC,1.03,1.1
N#C/C(=C\c1ccc(O)c(O)c1)C(=O)NCc1ccccc1,0.908 and 0.909,0.829 and 0.787
CC(N)(Cc1ccc(O)c(O)c1)C(=O)O (racemic),0.98,0.884
CCN(CC)CCOCCOC(=O)C(CC)(CC)c1ccccc1,0.84 and 0.704,0.816 and 0.848
Cc1cc(C)c(S(=O)(=O)Nc2cccc(C(F)(F)F)c2)c(C)c1,1.1,1.07
CN1C2CCC1CC(OC(=O)C(O)c1ccccc1)C2 (centres undefined),0.998,1.01
